Laboratory results: paper PMC6664820, “Novel natural and synthetic inhibitors of solute carriers SGLT1 and SGLT2” (Pharmacology Research & Perspectives, 2019)
Out of some 1,900 compounds screened, about 40 (2%) showed an effect of 50% or more. This is one part of the list. Residues, ends and D or L forms follow the SMILES beside them. *: point of attachment. NHCH2CH2OH = OCCN*; For = O=C*

What follows are molecules tested against human SGLT1 (hSGLT1) (human, UniProt P13866) (assay: primary screen, percent of control activity; higher = less effect of the substance). Details: 50 µM.
human SGLT1 (hSGLT1), sequence (P13866 whole entry, looked up): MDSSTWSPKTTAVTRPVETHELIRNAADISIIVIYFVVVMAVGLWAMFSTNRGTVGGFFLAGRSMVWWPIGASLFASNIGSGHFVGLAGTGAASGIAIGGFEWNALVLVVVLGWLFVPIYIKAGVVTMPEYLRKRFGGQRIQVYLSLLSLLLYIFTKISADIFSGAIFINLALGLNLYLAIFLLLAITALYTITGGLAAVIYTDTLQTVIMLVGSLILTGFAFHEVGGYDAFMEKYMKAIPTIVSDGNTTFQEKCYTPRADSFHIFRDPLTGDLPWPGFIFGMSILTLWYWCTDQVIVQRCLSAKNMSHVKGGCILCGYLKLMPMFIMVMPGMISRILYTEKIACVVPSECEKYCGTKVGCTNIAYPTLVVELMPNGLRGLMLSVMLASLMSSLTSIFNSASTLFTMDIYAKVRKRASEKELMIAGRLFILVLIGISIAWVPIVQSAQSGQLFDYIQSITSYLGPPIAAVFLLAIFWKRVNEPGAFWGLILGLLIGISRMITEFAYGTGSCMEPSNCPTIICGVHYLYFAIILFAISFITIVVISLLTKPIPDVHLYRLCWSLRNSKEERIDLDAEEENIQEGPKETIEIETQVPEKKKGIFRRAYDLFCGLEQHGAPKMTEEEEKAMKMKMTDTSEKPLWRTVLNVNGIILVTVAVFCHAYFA
Parameters: single well
In short: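 Single-point screen at 50 µmol/L in CHO-hSGLT1 cells, with 160 µmol/L 1-NBD-glucose in glucose-free DMEM for 90 min at 37°C. Fluorescence from isopropanol extracts was calibrated, and CHO wild-type uptake was subtracted. Data are percent of uptake without compound.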

Structure (SMILES) | NORMALIZED SGLT1 ACTIVITY (%)
NC(=O)c1cccc(N)c1 | 87%
CC(C(=O)O)c1ccc2c(c1)[nH]c1ccc(Cl)cc12 (centres unmarked) | 331%
Cc1onc(-c2ccccc2)c1C(=O)NC1C(=O)N2[C@@H]1SC(C)(C)[C@@H]2C(=O)[O-].[Na+] (some centres unmarked) | 88%
CCCCCc1c2c(cc(O)c1C(=O)O)OC(=O)c1c(cc(OC)cc1C(=O)CCCC)O2 | 152%
COc1ccc(C[C@H](N)C(=O)N[C@@H]2[C@@H](CO)OC(n3cnc4c(N(C)C)ncnc43)[C@@H]2O)cc1.Cl.Cl (some centres unmarked) | 116%
CC[C@@H]1C(=O)OC[C@@H]1Cc1cncn1C.O=[N+]([O-])O | 110%
O=C(O)Cc1nn(Cc2ccc(Br)cc2F)c(=O)c2ccccc12 | 180%
CCCCCCCC/C=C/CCCCCCCCOP(=O)([O-])OCC[N+](C)(C)C | 99%
CC(=O)OCC(=O)[C@H]1CC[C@H]2[C@@H]3CCC4=CC(=O)CC[C@]4(C)[C@H]3CC[C@]12C | 114%
C=C1C2CC[C@@]3(C)[C@H](c4ccoc4)OC(=O)C[C@]13O[C@H]1CC(=O)C(C)(C)[C@H](C(O)C(=O)OC)[C@@]21C (some centres unmarked) | 112%
CC1(C)[C@@H](OC(=O)CCC(=O)O)CC[C@]2(C)[C@H]3C(=O)C=C4[C@@H]5C[C@@](C)(C(=O)O)CC[C@]5(C)CC[C@@]4(C)[C@]3(C)CC[C@@H]12 | 91%
COc1ccc(Cl)cc1C(=O)NCCc1ccc(S(=O)(=O)NC(=O)NC2CCCCC2)cc1 | 132%
CC(=O)OCC1=C(C(=O)[O-])N2C(=O)[C@@H](NC(=O)CCCC(N)C(=O)O)C2SC1.[Na+] (some centres unmarked) | 106%
CC(=O)O[C@@H]1CC2C(C)(C)C(=O)[C@@H]3O[C@@H]3[C@]2(C)C2CC[C@]3(C)C(=CC(=O)O[C@H]3c3ccoc3)[C@@]21C (some centres unmarked) | 221%
COC(=O)C1=C(C)NC(C)=C(C(=O)OCCN(C)Cc2ccccc2)C1c1cccc([N+](=O)[O-])c1.Cl (centres unmarked) | 93%
C=C1C(=O)OC2CC1C(OC(C)=O)C/C(C)=C/CC/C(C)=C/CC[C@]2(C)O (some centres unmarked) | 107%
CN(C)CCOC(=O)COc1ccc(Cl)cc1.Cl | 124%
CC(=O)O[C@@H]1CC(=O)[C@@]2(C)C(CC(=O)[C@]3(C)C2CC[C@@]2(C)[C@H](c4ccoc4)OC(=O)C4OC423)C1(C)C (some centres unmarked) | 92%
CC[C@@]1(O)C[C@H](O[C@H]2C[C@H](N(C)C)[C@H](O)[C@H](C)O2)c2c(cc3c(c2O)C(=O)c2c(O)cccc2C3=O)[C@H]1C(=O)OC.Cl | 280%
CC(=O)Nc1c(I)cc(I)c(C(=O)O)c1I | 94%
COc1cc(OC)c2c(c1)O[C@H](c1ccc(OC)c(OC)c1)[C@@H](O)C2 | 169%

Structure (SMILES) | NORMALIZED SGLT1 ACTIVITY (%)
COc1cc(-c2coc3cc(OCc4ccccc4)c(OC)c(O)c3c2=O)cc(OCc2ccccc2)c1OC | 113%
c1coc(CNc2ncnc3[nH]cnc23)c1 | 171%
OC1CC2CCCC(C1)N2Cc1ccccc1 (centres unmarked) | 93%
CCCCCCCCCCCCCCCC(=O)OC/C=C(C)/C=C/C=C(C)/C=C/C1=C(C)CCCC1(C)C | 105%
CCN(CC)CCOC(=O)c1ccc(N)cc1.Cl | 90%
O=C(/C=C/c1ccc(O)c(O)c1)O[C@H](Cc1ccc(O)c(O)c1)C(=O)O | 101%
COC(=O)[C@H](Cc1ccccc1)NC(=O)[C@@H](N)CC(=O)O (H-Asp-Phe-OMe) | 100%
C[C@@H]1CCC[C@H](C)N1NC(=O)c1ccc(Cl)c(S(N)(=O)=O)c1 | 113%
O=C(Nc1ccccc1)Nc1ccccc1 | 132%
Nc1c2ccccc2nc2ccccc12 | 199%
COC(=O)C(O)c1ccccc1 (centres unmarked) | 173%
CC(C)C[C@H]1C(=O)N2CCC[C@H]2[C@]2(O)O[C@](NC(=O)[C@@H]3C=C4c5cccc6[nH]c(Br)c(c56)C[C@H]4N(C)C3)(C(C)C)C(=O)N12.CS(=O)(=O)O | 101%
CC(C)C1COc2cc3oc(=O)ccc3cc2O1 (centres unmarked) | 153%
CNc1ccccc1C(=O)O | 102%
C/C=C(\C)C(=O)OC1[C@@H]2C=C3C4CC(=O)O[C@@H](c5ccoc5)[C@]4(C)CCC3[C@@](C)(C2=O)[C@@H](C(O)C(=O)OC)C1(C)C (some centres unmarked) | 62%
Nc1nc2c(ncn2COCCO)c(=O)[nH]1 | 89%
CN[C@@H]1[C@@H](O[C@H]2O[C@H](CO)[C@@H](N)[C@H](O)[C@H]2O)O[C@H]2C[C@@H](N)[C@H](O[C@H]3[C@H](O)[C@@H](O)[C@H](N)C[C@@H]3N)O[C@@H]2[C@@H]1O | 105%
COc1cc(N)c(Cl)cc1C(=O)NC1CCN(Cc2ccccc2)CC1.O=C(O)/C=C\C(=O)O | 123%
O=C(/C=C(\O)c1ccccc1)c1ccccc1O | 207%
CC(=O)O[C@@H]1CC2C(C)(C)[C@H](O)C[C@H](O)[C@]2(C)C2CC[C@@]3(C)C(=CC(=O)O[C@H]3c3ccoc3)[C@@]21C (some centres unmarked) | 228%
Oc1ccc2c(c1)OCC1c3cc4c(cc3OC21)OCO4 (centres unmarked) | 181%

Structure (SMILES) | NORMALIZED SGLT1 ACTIVITY (%)
CC(=O)/C=C\[C@@H]1[C@@]2(C)CCCC(C)(C)C2CC[C@@]1(C)O (some centres unmarked) | 89%
CC(=O)O[C@@H]1CC2C(C)(C)[C@H](O)C=C[C@]2(C)C2CC[C@]3(C)C(=CC(=O)O[C@H]3c3ccoc3)[C@@]21C (some centres unmarked) | 200%
NC[C@H](O)c1ccc(O)c(O)c1 | 92%
CC1(C)C(=O)C=C[C@@]2(C)C1C[C@@H](O)[C@]1(C)C2CC[C@@]2(C)[C@H](c3ccoc3)OC(=O)[C@H]3O[C@]321 (some centres unmarked) | 103%
CC(=O)OCC(OC(C)=O)C(OC(C)=O)C(OC(C)=O)C(OC(C)=O)C(COC(C)=O)OC(C)=O (centres unmarked) | 108%
CCC(N)C(O)c1ccc(O)c(O)c1.Cl (centres unmarked) | 111%
CCOC(=O)c1c(C)cc(OC)cc1O | 224%
C[N+](C)(C)CCOC(N)=O.[Cl-] | 110%
CC1CCC(NC(=O)N(CCCl)N=O)CC1 (centres unmarked) | 74%
CC(C)=CCOc1cc2oc(=O)ccc2cc1O | 287%
CC(=O)Nc1ccc(OC(=O)c2ccccc2O)cc1 | 160%
CC(C)c1nc(N(C)S(C)(=O)=O)nc(-c2ccc(F)cc2)c1/C=C/[C@@H](O)C[C@@H](O)CC(=O)[O-].[Ca+2] | 93%
COc1c(Cl)ccc(Cl)c1C(=O)O | 146%
CC1Cc2ccccc2N1NC(=O)c1ccc(Cl)c(S(N)(=O)=O)c1 (centres unmarked) | 122%
COC(=O)[C@]1(C)CC[C@]2(C)CC[C@]3(C)C4=CCc5c(cc(O)c(O)c5C)[C@]4(C)CC[C@@]3(C)C2C1 (some centres unmarked) | 146%
COc1c(CC=C(C)C)c2c(c3oc(=O)c(-c4ccc(O)cc4)c(O)c13)C=CC(C)(C)O2 | 75%
CN1C(CC(=O)c2ccccc2)CCCC1CC(O)c1ccccc1.Cl (centres unmarked) | 58%
COc1ccc2oc(-c3ccccc3)c(OC)c(=O)c2c1 | 151%
COC1=C[C@@H]2[C@@H]3Cc4ccc(OC)c(O)c4[C@]2(CCN3C)CC1=O | 98%
CCOC(=O)C1C(C=C(C)C)C1(C)C (centres unmarked) | 99%
NCCC(=O)N[C@@H](Cc1c[nH]cn1)C(=O)O | 97%

Structure (SMILES) | NORMALIZED SGLT1 ACTIVITY (%)
Cc1cc(C)nc(NS(=O)(=O)c2ccc(N)cc2)n1 | 125%
COc1cc(NS(=O)(=O)c2ccc(N)cc2)ncn1 | 121%
O=c1c(O)cccc2c([C@H]3Oc4cc(O)cc(O)c4C[C@@H]3O)cc(O)c(O)c12 | 110%
O=c1ccc2ccc(O)c(O)c2o1 | 99%
O=c1ccc2ccccc2o1 | 104%
CC(=O)O[C@H]1C[C@@H](O)C(C)(C)C2C[C@@H](OC(C)=O)[C@]3(C)C(CC[C@@]4(C)[C@H](c5ccoc5)OC(=O)C5OC543)[C@]21C (some centres unmarked) | 143%
COc1ccc2c(c1)OCc1c-2oc2cc(OC)ccc12 | 353%
CCCOc1ccccc1-c1nc2[nH]nnc2c(=O)[nH]1 | 117%
CCOP(=S)(OCC)SCSCC | 47%
Cc1[nH]c2ccccc2c1CN(C)C | 88%
CC(C)CC(NC(=O)C(C)NC(=O)CNC(=O)C(NC=O)C(C)C)C(=O)NC(C)C(=O)NC(C(=O)NC(C(=O)NC(C(=O)NC(Cc1c[nH]c2ccccc12)C(=O)NC(CC(C)C)C(=O)NC(Cc1c[nH]c2ccccc12)C(=O)NC(CC(C)C)C(=O)NC(Cc1c[nH]c2ccccc12)C(=O)NC(CC(C)C)C(=O)NC(Cc1c[nH]c2ccccc12)C(=O)NCCO)C(C)C)C(C)C)C(C)C (centres unmarked) (For-VGALAVVVWLWLWLW-NHCH2CH2OH; configuration not given here) | 117%
CC(=O)OC[C@H]1O[C@@H](Oc2cc(OC(C)=O)c3c(=O)cc(-c4ccc(OC(C)=O)cc4)oc3c2)[C@H](OC(C)=O)[C@@H](OC(C)=O)[C@@H]1OC(C)=O | 133%
CC(CCC(=O)O)[C@H]1CCC2C3CC[C@@H]4CCCC[C@]4(C)C3CC[C@@]21C (some centres unmarked) | 71%
Cc1cc2nc3c(=O)[nH]c(=O)nc-3n(C[C@H](O)[C@H](O)[C@H](O)CO)c2cc1C | 130%
CC(C)NNC(=O)c1ccncc1.O=S(=O)(O)O | 85%
NCC(CC(=O)O)c1ccc(Cl)cc1 (centres unmarked) | 92%
COc1cc(C)c(C(=O)Oc2cc(C)c(C(=O)O)c(O)c2C)c(OC)c1C | 440%
Cc1cc(=O)oc2c(O)c(O)ccc12 | 197%
CC(=O)[C@@]1(O)CC[C@H]2[C@@H]3CCC4=CC(=O)CC[C@]4(C)[C@H]3CC[C@@]21C | 128%
CC1=CC(=O)C2C(C)(C)CCC[C@]2(C)[C@@]1(O)CCc1ccoc1 (some centres unmarked) | 147%
